Some of the results follow.
The sequences below were run on PF3D7_0420300 AP2 domain 1 (GST-tagged) (assay: gcPBM binding intensity (ln(normalized median fluorescence intensity)); higher = stronger DNA binding).
Method in brief: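 Binding intensity is defined as the maximum Masliner-normalised natural-log median intensity across replicate spots for either probe orientation. It was measured on an Agilent 4 × 180k array of primer-extended double-stranded 36-bp intergenic genomic probes and negative controls, to which GST-tagged P. falciparum DNA-binding domains made in E. coli were applied for 1 h in 1× PBS with 1% milk, 0.2 mg/ml BSA, 0.5% salmon testes DNA and 0.03% Triton X-100. Detection was by Alexa488 anti-GST antibody and scanning at 488 nm.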

Sequence	gcPBM binding intensity (ln)
ACGCACGAAATAAATACATGCATATTGTAAAAATTA [TGCATGCA_site310]	8.94
GGGAATATATTCAATTGTACATTCTTATTTTATCCA [XGTACX_site8480]	9.26
TCTTTTTTTTTACATACTTTTTTCCTTTTTTTTTTA [CACACA_negctrl_site1429]	9.46
GTTGTTTCTATAAATTGTACTTAAATATAATTATAT [XGTACX_site585]	9.43
ATATATTGTATGTGCTCACACATGTTTCGATATTAT [CACACA_site4336]	9.51
GTAAATATGTTTATTAGTACACATATGAAAATAAAT [XGTACX_site5820]	9.27
GTTCAAAATATGAACACACACATATATATATATATA [CACACA_site2057]	9.44
TTTCGTAATATGCGTGTGCACAATGAGTCCATATCT	9.47
ATCTACATATATTATTGTACATTGTTAAAAATTTAT [XGTACX_site7769]	9.32
TAAAATATAATTAGCACACATATATAAAATATATAT [CACACA_site4093]	9.33
TTTTTTTTTTTTTGGGGTACATTTTAATTAATATTA [XGTACX_site4866]	9.32
AACACACACATATATATATATATATATATATATATA [GTGCAC_negctrl_site573]	9.48
TTTTTAATATTGTATGCATGTCGTAATAAAAAATTT [TGCATGCA_site259]	9.02
ATAATAAACATATATGTACACACATATACATATATA [CACACA_site8924]	9.48
ATATACTATTAACCACATATGTGTGTTAATTTATAT [GTGCAC_negctrl_site315]	9.45
TTGAACCCCACTAACACACACACGCACGCTCAGAAA [CACACA_site2983]	9.73
TGCTATTTCATATTCTGTACTAAAACAAGATAATAA [XGTACX_site3852]	8.88
ATATTAATTATAACTTGTACGTAAAAGGAAAACAAT [XGTACX_site3269]	9.59
TAGAAACTATGTAATGCACACCAAAATAAAATTATT [CACACA_site8578]	9.45
TTTTGGATACTTCATTTGTCCTGTTTTTTTTTTTTA [CACACA_negctrl_site399]	9.5
TTTTAAAAAATAAAATATTATTGAAGTAAAATATGA [CACACA_negctrl_site758]	8.91
AAAATATATCAAAACACACTCACATATAATACTTAC [CACACA_site6031]	9.77

Sequence	gcPBM binding intensity (ln)
TATATACTTATATACTGTACTCATCATCTTTTAAAG [XGTACX_site6099]	9.28
TTTTTTTTTTTTTAAACATGCAAAATATATAATTTT [TGCATGCA_site633]	8.84
TAATATATCTATAATACACACTATTCTAATCACATA [CACACA_site6731]	9.27
ATATATGAAAATATATGTACACAACATATAAAATAG [XGTACX_site5132]	9.41
TTTTCATTCTTATATAAATATTATTTTATATAAAAT [GTGCAC_negctrl_site674]	8.9
AATTATATACCATGCACACAAATATTCATACAGGAA [CACACA_site4057]	9.7
AAAAATATATATATATTTCTTCTTTGTTAAAATGTA [CACACA_negctrl_site1459]	8.88
GTAGAATCAGTATTCACACATAAATGTATCCAAATG [CACACA_site5395]	9.17
ATATATATATATAGAAGTACTCTTATATATTTTATA [XGTACX_site1384]	9.04
GATATGGAATATATGTGTACATATATATATATTATA [XGTACX_site1724]	9.2
AAAAAAAAAAAAAATACACACACATAAAAAAAAAAA [CACACA_site8555]	9.95
CAAATTTTTAAAAATGCATGTTCATCCATCCCATAT [TGCATGCA_site467]	9.05
TTTGTATGATCATAAAGTACTAATTTACATTCAGCA [XGTACX_site8596]	8.94
TTTTTTACATTCTGCACACAATTTATTTTTTTTTTT [CACACA_site4188]	9.68
TTATGGAAAAATATAACACACAATGATTTTTTATAA [CACACA_site1831]	9.35
TTTTCGCTTTTATAAAATTATATGAAAAAACTAAAA [XGTACX_negctrl_site139]	8.73
ATTTATATAAAATTAAAATAATACAAATTTATTCAT [GTGCAC_negctrl_site305]	8.98
TATAACTATGGGTGTACACATTAATCGTTTTTCTTT [CACACA_site5196]	9.42
TATTGTAAAAAAGCAAAATTTATCACCTCCTTATTT [CACACA_negctrl_site172]	9.2
TGTAATACATGTTGTTGTACAATATCTTTAACTTTT [XGTACX_site1219]	9.3
CCACTAAAGGCATATACACACATTTTTTAAATTGCC [CACACA_site2839]	9.36
TACACAAAAATAAACACACACACATATAAATAAATA [CACACA_site6599]	10.2

Sequence	gcPBM binding intensity (ln)
TAATACATAAATAATGTGCACATGGAAATATATCTT	9.53
TATTTTATATACAGTGGTACTTTTTTTTTTTTTTTT [XGTACX_site2475]	9.02
AAAAAAAAAAAAAAATCACACACAATATGAATTTAT [CACACA_site8100]	9.55
ACATATATATTATAAGCATGCATGAGAAAATTTTTA [TGCATGCA_site1054]	9.19
AAAAAAAAAAAAAAAACACACATTTGAAGAAAAAAA [CACACA_site7389]	9.38
AATTGCTTCAAAATTAAACACACACTAATAAAAAAA [CACACA_site8855]	9.54
ATGAATGAATACGTTTTACACACTTGAATATAATTT [CACACA_site8237]	9.49
GTATATTGTACCATCACACATGTAAAACATAGATGT [CACACA_site5359]	9.22
AACATAACAAAAAAAAAAAAAAATATATATATATAT [TGCATGCA_negctrl_site370]	9.08
TATTTCACAAAAAAAAAAAAAAAAAAGAAGCAAAAA [CACACA_negctrl_site1040]	9.09
TCCTTAAAAAAACCTTAACACACATAAACTATAATT [CACACA_site9001]	9.52
TTTTTTTTTAAGTTTGCACACATGGAAGACAAAAAT [CACACA_site2505]	9.35
GATGAAATATCATTACGTACACAATAGTTTGTATTT [XGTACX_site5143]	9.38
TGAAAAAAAAAATGCACACGCATACAGATAATATGT [CACACA_site4526]	9.59
AATAATAATAGAAACACACACACATTTTTAAGAATA [CACACA_site6692]	10.1
ATTATTGCAATTTAATGTACATAATACAAATTTGCC [XGTACX_site2729]	9.3
AATGAATAAATAAACACACACACATATATATATATG [CACACA_site18]	10.2
TATACGTATACCTATACACACATATATATATATATA [CACACA_site1273]	9.49
TATATTCAAAAAAATTCATTTCTGATTTTTTTTTTT [CACACA_negctrl_site1085]	8.78
TATTTCAAATGTTATGTGCACATATTAATCCTACTT [GTGCAC_site9738]	9.23
AATATCTGAAAATAAAGTACAAACATATTATAAATA [XGTACX_site5738]	9.42
TACTTATTTGATTGGGTGCATATATATAGTATGTAT [GTGCAC_site9845]	9.4

Sequence	gcPBM binding intensity (ln)
AATAATAATTTAAAAAGTACATTCTAATAAACACGT [XGTACX_site1444]	9.46
AAAAAAAAACACGCATGTACATAAAAATAATCATAC [XGTACX_site1086]	9.8
TTATTTATGAGGGTGACACACAAAAGAGTGTTAAGA [CACACA_site277]	9.38
AAATAAAATAAAATAAAATAAAATAAAATAAAATAA [XGTACX_negctrl_site142]	8.92
CTTGTGCTTTATAGGGTGCACATTTTGTTTTGGTAA [GTGCAC_site9899]	9.34
TTATTAATTATATATAGTACACATTTCACAGATGGG [XGTACX_site2349]	9.2
TGAACACATACATACACACACACAAAAAAAAAAAAA [CACACA_site392]	9.97
AAAATTATGCAGTAGGTGCAATACCCTCGGCTTTTT [GTGCAC_site9556]	9.24
TTTTTTTTTTTTTTTGGTACACATTTTGGTTAATGG [XGTACX_site5109]	9.06
TTAATCCTTTTTAAAAGTACACATATATATATATAT [XGTACX_site962]	9.16
TATATATATATATAATGTACAGAAAAAAAAAAAAAA [XGTACX_site6141]	9.38
AAATCATGTTGAAGGGGTACAAAATATGTAATGTTG [XGTACX_site6222]	9.31
ATATTATATATTTGATGTACATTGAATGAGAGAGAA [XGTACX_site3324]	9.4
CAAATCAAAATTAATTAACACACAATTTTAATATTC [CACACA_site8641]	9.42
TTCTTTGTAGTATATTAACACACAACTGTTTATAAT [CACACA_site9305]	9.63
AAATAGAGAAATACAAGTACATACTAAACCAATCTA [XGTACX_site2780]	9.39
TATAATGTTGATAATAGTACGTATGAGTTCAAAAAA [XGTACX_site988]	9.01
AAAGGATATAATACCATACACACATTTATAAAATAA [CACACA_site1931]	9.64
ACTTTTATTCGCTTACGTACATATATTATATATTAT [XGTACX_site4459]	9.82
AAAAGAAAATATATGTGTACTAAAATATATATATAT [XGTACX_site3817]	9.46
TACCTACACTTTTGGAGTACAATTAAAAAAAAAAAA [XGTACX_site1403]	8.88
TTTAAAGTAATAAAGTGTACAAAAATAAATTCAGCT [XGTACX_site8651]	9.46

Source: the supplement of paper PMC11417369
